Molecules are shown by their SMILES. This is one part of the list.

For the first assay, the system named is HSkMC (human skeletal muscle cells). Description: cytotoxicity call (relative viability < 0.9). Conditions: 10 µM.
`COc1ccc(OC(=O)N(C)C[C@H]2OCc3ccccc3-c3c(n(C)c4ccccc34)C(=O)N([C@@H](C)CO)C[C@@H]2C)cc1`: the cytotoxicity call was “inactive”.

Consider `NC(Cc1ccc(N(CCCl)CCCl)cc1)C(=O)O` (stereo not drawn), for which the cytotoxicity call was “inactive”.

For `CCN1C[C@]2(OC(=O)c3ccccc3NC(C)=O)CC[C@H](OC)[C@@]34[C@@H]2C[C@@H]([C@@H]13)[C@@]1(O)C[C@H](OC)[C@H]2C[C@@H]4[C@]1(O)[C@H]2OC`, the cytotoxicity call was “inactive”.

As for `CN(C)NC(=O)CCC(=O)O`, the cytotoxicity call is “inactive”.

With `CC(=O)NC1CCSC1=O` (stereo not drawn), the cytotoxicity call was “inactive”.

Take `C[C@H]1CN([C@@H](C)CO)C(=O)c2c(c3ccccc3n2C)-c2ccccc2CO[C@H]1CN(C)C(=O)Oc1ccccc1`: the cytotoxicity call is “inactive”.

With `O=C(CCCN1CCC2(CC1)C(=O)N(Cc1cccc(F)c1)CN2c1ccccc1)c1ccc(F)cc1`, the cytotoxicity call is “inactive”.

With `CC1(C)S[C@@H]2[C@H](N)C(=O)N2[C@H]1C(=O)O`, the cytotoxicity call was “inactive”.

Consider `COC(=O)[C@@H]1C(=O)NC[C@H]1C(C)C`, for which the cytotoxicity call is “inactive”.

As to `COc1ccc(C2(CN)CCCC2)cc1`, the cytotoxicity call is “inactive”.

Regarding `NC1Cc2ccccc2C1`, the cytotoxicity call is “inactive”.

On to `CSC1=NN1c1cc(C)nc(N)n1`, for which the cytotoxicity call is “inactive”.

Turning to `C[C@H]1C[C@@H](O)[C@]2(O)[C@@]13CC(=O)OC[C@@]2(C)[C@](C)(O)C(=O)C3`, the cytotoxicity call is “inactive”.

As to `Cc1nc[nH]c1CCN`, the cytotoxicity call is “inactive”.

As to `Fc1ccc(Oc2ccnc3cc(Cl)cc(Cl)c23)cc1`, the cytotoxicity call was “inactive”.

Turning to `NC1(c2ccc(Cl)cc2)CC1`, the cytotoxicity call was “inactive”.

For the molecule `CN(C)C(=O)Oc1cccc([N+](C)(C)C)c1.[Br-]`, the cytotoxicity call was “inactive”.

As for `Br.CC(Cc1ccc(O)cc1)NCC(O)c1cc(O)cc(O)c1` (stereo not drawn), the cytotoxicity call was “inactive”.

Consider `COc1cc2c(cc1O)CC1c3c(cc(O)c(OC)c3-2)CCN1C` (stereo not drawn), for which the cytotoxicity call is “inactive”.

Consider `Oc1cc(Cl)ccc1Oc1ccc(Cl)cc1Cl`, for which the cytotoxicity call was “active”.

Consider `C=CC1CN2CCC1CC2C(O)c1ccnc2ccccc12` (stereo not drawn), for which the cytotoxicity call is “inactive”.

`C[C@@H](N)Cc1cnc[nH]1`: the cytotoxicity call is “inactive”.

In the case of `CNC(=O)[C@@H]1COC[C@@H]2CN(CC(C)C)C[C@@H]21`, the cytotoxicity call is “inactive”.

`Cc1nnc(N2CCC[C@]3(CNCCO3)C2)o1`: the cytotoxicity call was “inactive”.

On to `Cc1noc(C)c1C(=O)N1C[C@@H]2CCN[C@@H]2C1`, for which the cytotoxicity call is “inactive”.

For the molecule `CNC(=O)[C@H]1Cn2ccnc2C2(CCNCC2)O1`, the cytotoxicity call is “inactive”.

For `OC[C@@H]1[C@@H](O)[C@H](O)[C@H]2[C@@H](O)CCN21`, the cytotoxicity call is “inactive”.

Consider `Cn1ccnc1C(=O)N[C@H]1CN[C@@H]2CCCO[C@@H]12`, for which the cytotoxicity call was “inactive”.

Consider `CCCC[C@@H](C)[C@@H](OC(=O)C[C@@H](CC(=O)O)C(=O)O)[C@H](C[C@@H](C)C[C@H](O)CCCC[C@@H](O)C[C@H](O)[C@H](C)N)OC(=O)C[C@@H](CC(=O)O)C(=O)O`, for which the cytotoxicity call is “inactive”.

Turning to `C1C[C@@H]2C[C@@H]2N1`, the cytotoxicity call was “inactive”.

On to `Cc1cc(O)c2c(=O)c3c(O)cc(O)c4c5c(O)cc(O)c6c(=O)c7c(O)cc(C)c8c1c2c(c34)c(c78)c65`, for which the cytotoxicity call was “active”.

Consider `CCN1C[C@]2(C)CC[C@H](O)[C@@]34[C@@H]5C[C@H]6[C@H](O)[C@@H]5[C@](O)(C[C@@H]6OC)[C@](O)([C@@H](OC)[C@H]23)[C@@H]14`, for which the cytotoxicity call was “inactive”.

Turning to `C[C@H]1[C@H](O)[C@@H](C)/C=C\C=C/CC\C=C/C=C\C=C/C=C\[C@@H](O[C@@H]2O[C@H](C)[C@@H](O)[C@H](N)[C@@H]2O)C[C@H]2O[C@@](O)(C[C@@H](O)[C@@H]2C(=O)O)C[C@@H](O)[C@@H](O)CC[C@@H](O)C[C@@H](O)C[C@@H](O)CC(=O)O[C@H]1C`, the cytotoxicity call is “inactive”.

On to `COC(=O)NC(=S)Nc1ccccc1NC(=S)NC(=O)OC`, for which the cytotoxicity call was “active”.

For the molecule `C[C@H]1CN([C@@H](C)CO)C(=O)CCCn2nncc2CO[C@@H]1CN(C)C(=O)Oc1cccc2ccccc12`, the cytotoxicity call is “inactive”.

For `COCCC(=O)N1C[C@H]2CCN[C@H]2C1`, the cytotoxicity call is “inactive”.

In the case of `CC(=O)Oc1ccc(Cl)c2cccnc12`, the cytotoxicity call is “inactive”.

Regarding `CCC(=O)CCCCC[C@@H]1NC(=O)[C@H]2CCCCN2C(=O)[C@H]([C@@H](C)CC)NC(=O)[C@H](Cc2cn(OC)c3ccccc23)NC1=O`, the cytotoxicity call is “active”.

In the case of `CCN1C(=O)/C(=C/c2ccc[nH]2)C(=O)NC1=S`, the cytotoxicity call was “inactive”.

In a further assay the test system is HepG2. The experiment in a line: cytotoxicity call (relative viability < 0.9). The following applies: 10 µM.
Turning to `COc1ccc(OC(=O)N(C)C[C@H]2OCc3ccccc3-c3c(n(C)c4ccccc34)C(=O)N([C@@H](C)CO)C[C@@H]2C)cc1`, the cytotoxicity call is “inactive”.

`NC(Cc1ccc(N(CCCl)CCCl)cc1)C(=O)O` (stereo not drawn): the cytotoxicity call was “inactive”.

With `CCN1C[C@]2(OC(=O)c3ccccc3NC(C)=O)CC[C@H](OC)[C@@]34[C@@H]2C[C@@H]([C@@H]13)[C@@]1(O)C[C@H](OC)[C@H]2C[C@@H]4[C@]1(O)[C@H]2OC`, the cytotoxicity call was “inactive”.

With `CN(C)NC(=O)CCC(=O)O`, the cytotoxicity call is “inactive”.

For the molecule `CC(=O)NC1CCSC1=O` (stereo not drawn), the cytotoxicity call was “inactive”.

With `C[C@H]1CN([C@@H](C)CO)C(=O)c2c(c3ccccc3n2C)-c2ccccc2CO[C@H]1CN(C)C(=O)Oc1ccccc1`, the cytotoxicity call is “inactive”.

As for `O=C(CCCN1CCC2(CC1)C(=O)N(Cc1cccc(F)c1)CN2c1ccccc1)c1ccc(F)cc1`, the cytotoxicity call is “active”.

Regarding `CC1(C)S[C@@H]2[C@H](N)C(=O)N2[C@H]1C(=O)O`, the cytotoxicity call was “inactive”.

In the case of `COC(=O)[C@@H]1C(=O)NC[C@H]1C(C)C`, the cytotoxicity call is “inactive”.

For the molecule `COc1ccc(C2(CN)CCCC2)cc1`, the cytotoxicity call was “inactive”.

Consider `NC1Cc2ccccc2C1`, for which the cytotoxicity call was “inactive”.

On to `CSC1=NN1c1cc(C)nc(N)n1`, for which the cytotoxicity call was “inactive”.

With `C[C@H]1C[C@@H](O)[C@]2(O)[C@@]13CC(=O)OC[C@@]2(C)[C@](C)(O)C(=O)C3`, the cytotoxicity call was “inactive”.

As for `Cc1nc[nH]c1CCN`, the cytotoxicity call is “inactive”.

`Fc1ccc(Oc2ccnc3cc(Cl)cc(Cl)c23)cc1`: the cytotoxicity call is “inactive”.

`NC1(c2ccc(Cl)cc2)CC1`: the cytotoxicity call was “inactive”.

In the case of `CN(C)C(=O)Oc1cccc([N+](C)(C)C)c1.[Br-]`, the cytotoxicity call was “inactive”.

Take `Br.CC(Cc1ccc(O)cc1)NCC(O)c1cc(O)cc(O)c1` (stereo not drawn): the cytotoxicity call was “inactive”.

In the case of `COc1cc2c(cc1O)CC1c3c(cc(O)c(OC)c3-2)CCN1C` (stereo not drawn), the cytotoxicity call was “inactive”.

With `Oc1cc(Cl)ccc1Oc1ccc(Cl)cc1Cl`, the cytotoxicity call was “active”.

On to `C=CC1CN2CCC1CC2C(O)c1ccnc2ccccc12` (stereo not drawn), for which the cytotoxicity call was “inactive”.

In the case of `C[C@@H](N)Cc1cnc[nH]1`, the cytotoxicity call was “inactive”.

For the molecule `CNC(=O)[C@@H]1COC[C@@H]2CN(CC(C)C)C[C@@H]21`, the cytotoxicity call was “inactive”.

Take `Cc1nnc(N2CCC[C@]3(CNCCO3)C2)o1`: the cytotoxicity call was “inactive”.

Take `Cc1noc(C)c1C(=O)N1C[C@@H]2CCN[C@@H]2C1`: the cytotoxicity call was “inactive”.

With `CNC(=O)[C@H]1Cn2ccnc2C2(CCNCC2)O1`, the cytotoxicity call was “inactive”.

On to `OC[C@@H]1[C@@H](O)[C@H](O)[C@H]2[C@@H](O)CCN21`, for which the cytotoxicity call was “inactive”.

With `Cn1ccnc1C(=O)N[C@H]1CN[C@@H]2CCCO[C@@H]12`, the cytotoxicity call was “inactive”.

Consider `CCCC[C@@H](C)[C@@H](OC(=O)C[C@@H](CC(=O)O)C(=O)O)[C@H](C[C@@H](C)C[C@H](O)CCCC[C@@H](O)C[C@H](O)[C@H](C)N)OC(=O)C[C@@H](CC(=O)O)C(=O)O`, for which the cytotoxicity call is “inactive”.

Regarding `C1C[C@@H]2C[C@@H]2N1`, the cytotoxicity call is “inactive”.

For `Cc1cc(O)c2c(=O)c3c(O)cc(O)c4c5c(O)cc(O)c6c(=O)c7c(O)cc(C)c8c1c2c(c34)c(c78)c65`, the cytotoxicity call is “active”.

In the case of `CCN1C[C@]2(C)CC[C@H](O)[C@@]34[C@@H]5C[C@H]6[C@H](O)[C@@H]5[C@](O)(C[C@@H]6OC)[C@](O)([C@@H](OC)[C@H]23)[C@@H]14`, the cytotoxicity call is “inactive”.

With `C[C@H]1[C@H](O)[C@@H](C)/C=C\C=C/CC\C=C/C=C\C=C/C=C\[C@@H](O[C@@H]2O[C@H](C)[C@@H](O)[C@H](N)[C@@H]2O)C[C@H]2O[C@@](O)(C[C@@H](O)[C@@H]2C(=O)O)C[C@@H](O)[C@@H](O)CC[C@@H](O)C[C@@H](O)C[C@@H](O)CC(=O)O[C@H]1C`, the cytotoxicity call is “inactive”.

Turning to `COC(=O)NC(=S)Nc1ccccc1NC(=S)NC(=O)OC`, the cytotoxicity call was “active”.

Take `C[C@H]1CN([C@@H](C)CO)C(=O)CCCn2nncc2CO[C@@H]1CN(C)C(=O)Oc1cccc2ccccc12`: the cytotoxicity call was “inactive”.

In the case of `COCCC(=O)N1C[C@H]2CCN[C@H]2C1`, the cytotoxicity call was “inactive”.

With `CC(=O)Oc1ccc(Cl)c2cccnc12`, the cytotoxicity call is “active”.

`CCC(=O)CCCCC[C@@H]1NC(=O)[C@H]2CCCCN2C(=O)[C@H]([C@@H](C)CC)NC(=O)[C@H](Cc2cn(OC)c3ccccc23)NC1=O`: the cytotoxicity call was “active”.

Turning to `CCN1C(=O)/C(=C/c2ccc[nH]2)C(=O)NC1=S`, the cytotoxicity call is “inactive”.
